# Measured values taken from the supplement of paper PMC8728848.
# The other results are listed elsewhere or left out.
# How the values were obtained:
# Assay in all cases: glycan array binding signal (z-score within array); higher = stronger binding
# Settings in all cases: glycan notation: IUPAC condensed, linker removed
# [1] = target: Neu5Ac(a2-6)Gal(b1-4)GlcNAc(b1-2)Man(a1-3)[Neu5Ac(a2-6)Gal(b1-4)GlcNAc(b1-2)Man(a1-6)]Man(b1-4)GlcNAc(b1-4)GlcNAc
# Outline: (§1)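 Glycan array binding is given as a within-array Z-score, which can be read as non-binding when negative. The arrays, 3228 of them, came from the Consortium for Functional Glycomics database and were retained only where the protein sequence was available. Z-scores were averaged across arrays of the same protein sequence at different concentrations or buffers and across linkers.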
# [2] = target: Neu5Ac(a2-6)Gal(b1-4)GlcNAc(b1-2)Man(a1-6)Man(b1-4)GlcNAc(b1-4)GlcNAc
# Outline: as §1
# [3] = target: Neu5Ac(a2-6)Gal(b1-4)GlcNAc(b1-2)Man(a1-6)[Gal(b1-4)GlcNAc(b1-2)Man(a1-3)]Man(b1-4)GlcNAc(b1-4)GlcNAc
# Outline: as §1
# [4] = target: Neu5Ac(a2-6)Gal(b1-4)GlcNAc(b1-2)Man(a1-6)[GlcNAc(b1-2)Man(a1-3)]Man(b1-4)GlcNAc(b1-4)GlcNAc
# Outline: as §1
# [5] = target: Neu5Ac(a2-6)Gal(b1-4)GlcNAc(b1-2)Man(a1-6)[Man(a1-3)]Man(b1-4)GlcNAc(b1-4)GlcNAc
# Outline: as §1
# [6] = target: Neu5Ac(a2-6)Gal(b1-4)GlcNAc(b1-3)Gal(b1-3)GlcNAc
# Outline: as §1
# [7] = target: Neu5Ac(a2-6)Gal(b1-4)GlcNAc(b1-3)Gal(b1-4)GlcNAc
# Outline: as §1
# [8] = target: Neu5Ac(a2-6)Gal(b1-4)GlcNAc(b1-3)Gal(b1-4)GlcNAc(b1-3)Gal(b1-4)GlcNAc
# Outline: as §1
# [9] = target: Neu5Ac(a2-6)Gal(b1-4)GlcNAc(b1-3)Gal(b1-4)[Fuc(a1-3)]GlcNAc(b1-3)Gal(b1-4)[Fuc(a1-3)]GlcNAc
# Outline: as §1
# [10] = target: Neu5Ac(a2-6)Gal(b1-4)GlcNAc(b1-3)GalNAc
# Outline: as §1
# [11] = target: Neu5Ac(a2-6)Gal(b1-4)GlcNAc6S
# Outline: as §1
# Neu5Ac(a2-6)GalNAc = target: Neu5Ac(a2-6)GalNAc
# Outline: as §1
# [12] = target: Neu5Ac(a2-6)GalNAc(b1-4)GlcNAc
# Outline: as §1
# [13] = target: Neu5Ac(a2-6)GlcNAc(b1-4)GlcNAc
# Outline: as §1
# [14] = target: Neu5Ac(a2-6)GlcNAc(b1-4)GlcNAc(b1-4)GlcNAc
# Outline: as §1
# Neu5Ac(a2-8)Neu5Ac = target: Neu5Ac(a2-8)Neu5Ac
# Outline: as §1
# [15] = target: Neu5Ac(a2-8)Neu5Ac(a2-3)Gal(b1-3)GalNAc(b1-4)[Neu5Ac(a2-8)Neu5Ac(a2-3)]Gal(b1-4)Glc
# Outline: as §1
# [16] = target: Neu5Ac(a2-8)Neu5Ac(a2-3)Gal(b1-4)Glc
# Outline: as §1
# [17] = target: Neu5Ac(a2-8)Neu5Ac(a2-3)[Gal(b1-3)GalNAc(b1-4)]Gal(b1-4)Glc
# Outline: as §1
# [18] = target: Neu5Ac(a2-8)Neu5Ac(a2-3)[GalNAc(b1-4)]Gal(b1-4)Glc
# Outline: as §1
# [19] = target: Neu5Ac(a2-8)Neu5Ac(a2-8)Neu5Ac
# Outline: as §1
# [20] = target: Neu5Ac(a2-8)Neu5Ac(a2-8)Neu5Ac(a2-3)Gal(b1-4)Glc
# Outline: as §1
# [21] = target: Neu5Ac(a2-8)Neu5Ac(a2-8)Neu5Ac(a2-3)[GalNAc(b1-4)]Gal(b1-4)Glc
# Outline: as §1
# [22] = target: Neu5Ac(a2-8)Neu5Ac(a2-8)Neu5Ac(a2-8)Neu5Ac(a2-3)[GalNAc(b1-4)]Gal(b1-4)Glc
# Outline: as §1
# [23] = target: Neu5Ac(b2-6)Gal(b1-4)GlcNAc
# Outline: as §1
# Neu5Ac(b2-6)GalNAc = target: Neu5Ac(b2-6)GalNAc
# Outline: as §1
# [24] = target: Neu5Ac9Ac(a2-3)Gal(b1-3)GlcNAc
# Outline: as §1
# [25] = target: Neu5Ac9Ac(a2-3)Gal(b1-4)GlcNAc
# Outline: as §1
# [26] = target: Neu5Ac9Ac(a2-6)Gal(b1-4)GlcNAc
# Outline: as §1
# [27] = target: Neu5Gc(a2-3)Gal(b1-3)GlcNAc
# Outline: as §1
# [28] = target: Neu5Gc(a2-3)Gal(b1-3)[Fuc(a1-4)]GlcNAc
# Outline: as §1
# Neu5Gc(a2-3)Gal(b1-4)Glc = target: Neu5Gc(a2-3)Gal(b1-4)Glc
# Outline: as §1
# [29] = target: Neu5Gc(a2-3)Gal(b1-4)GlcNAc
# Outline: as §1
# [30] = target: Neu5Gc(a2-3)Gal(b1-4)[Fuc(a1-3)]GlcNAc
# Outline: as §1
# [31] = target: Neu5Gc(a2-6)Gal(b1-4)GlcNAc
# Outline: as §1
# Neu5Gc(a2-6)GalNAc = target: Neu5Gc(a2-6)GalNAc
# Outline: as §1
# [32] = target: Neu5Gc(b2-6)Gal(b1-4)GlcNAc
# Outline: as §1
binder,measurement,setting,value
"Eosinophil cationic protein (ECP) (Homo sapiens), P12724 (protein) MVPKLFTSQICLLLLLGLMGVEGSLHARPPQFTRAQWFAIQHISLNPPRCTIAMRAINNYRWRCKNQNTFLRTTFANVVNVCGNQSIRCPHNRTLNNCHRSRFRVPLLHCDLINPGAQNISNCTYADRPGRRFYVVACDNRDPRDSPRYPVVPVHLDTTI",glycan array binding signal (z-score),[1],0.19
same,glycan array binding signal (z-score),[2],-0.261
same,glycan array binding signal (z-score),[3],0.038
same,glycan array binding signal (z-score),[4],1.09
same,glycan array binding signal (z-score),[5],-0.157
same,glycan array binding signal (z-score),[6],-0.28
same,glycan array binding signal (z-score),[7],-0.126
same,glycan array binding signal (z-score),[8],-0.226
same,glycan array binding signal (z-score),[9],0.31
same,glycan array binding signal (z-score),[10],-0.272
same,glycan array binding signal (z-score),[11],-0.249
same,glycan array binding signal (z-score),Neu5Ac(a2-6)GalNAc,0.284
same,glycan array binding signal (z-score),[12],-0.157
same,glycan array binding signal (z-score),[13],-0.372
same,glycan array binding signal (z-score),[14],-0.481
same,glycan array binding signal (z-score),Neu5Ac(a2-8)Neu5Ac,-0.226
same,glycan array binding signal (z-score),[15],0.344
same,glycan array binding signal (z-score),[16],-0.245
same,glycan array binding signal (z-score),[17],0.054
same,glycan array binding signal (z-score),[18],0.074
same,glycan array binding signal (z-score),[19],-0.079
same,glycan array binding signal (z-score),[20],-0.48
same,glycan array binding signal (z-score),[21],-0.44
same,glycan array binding signal (z-score),[22],0.068
same,glycan array binding signal (z-score),[23],-0.433
same,glycan array binding signal (z-score),Neu5Ac(b2-6)GalNAc,-0.059
same,glycan array binding signal (z-score),[24],-0.406
same,glycan array binding signal (z-score),[25],0.112
same,glycan array binding signal (z-score),[26],-0.712
same,glycan array binding signal (z-score),[27],0.505
same,glycan array binding signal (z-score),[28],0.268
same,glycan array binding signal (z-score),Neu5Gc(a2-3)Gal(b1-4)Glc,0.028
same,glycan array binding signal (z-score),[29],-0.309
same,glycan array binding signal (z-score),[30],-0.367
same,glycan array binding signal (z-score),[31],-0.202
same,glycan array binding signal (z-score),Neu5Gc(a2-6)GalNAc,-0.003
same,glycan array binding signal (z-score),[32],0.059
